From the supplement of paper PMC8728848
The other results are listed elsewhere or left out.

What was measured:
Assay in all cases: glycan array binding signal (z-score within array); higher = stronger binding
Details in all cases: glycan notation: IUPAC condensed, linker removed
[1] = molecular target: Gal(b1-3)GlcNAc(b1-6)[Gal(b1-3)]GalNAc
In short: (§1)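 The binding signal is a Z-score computed within each array and averaged over linkers. Arrays of the same protein sequence at different concentrations or buffers were also averaged together. Data originate from 3228 arrays in the Consortium for Functional Glycomics database, kept only where the protein sequence was available.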

Gal(b1-3)GlcNAc6S = molecular target: Gal(b1-3)GlcNAc6S
In short: as §1

[2] = molecular target: Gal(b1-3)[Fuc(a1-4)]GlcNAc
In short: as §1

[3] = molecular target: Gal(b1-3)[Fuc(a1-4)]GlcNAc(b1-2)Man
In short: as §1

[4] = molecular target: Gal(b1-3)[Fuc(a1-4)]GlcNAc(b1-2)Man(a1-3)[Gal(b1-3)[Fuc(a1-4)]GlcNAc(b1-2)Man(a1-6)]Man(b1-4)GlcNAc(b1-4)[Fuc(a1-6)]GlcNAc
In short: as §1

[5] = molecular target: Gal(b1-3)[Fuc(a1-4)]GlcNAc(b1-3)Gal(b1-3)[Fuc(a1-4)]GlcNAc
In short: as §1

[6] = molecular target: Gal(b1-3)[Fuc(a1-4)]GlcNAc(b1-3)Gal(b1-4)[Fuc(a1-3)]GlcNAc
In short: as §1

[7] = molecular target: Gal(b1-3)[Fuc(a1-4)]GlcNAc(b1-6)GalNAc
In short: as §1

[8] = molecular target: Gal(b1-3)[GlcNAc(b1-6)]GalNAc
In short: as §1

[9] = molecular target: Gal(b1-3)[Neu5Ac(a2-6)]GalNAc
In short: as §1

[10] = molecular target: Gal(b1-3)[Neu5Ac(a2-6)]GlcNAc(b1-4)Gal(b1-4)Glc
In short: as §1

[11] = molecular target: Gal(b1-3)[Neu5Ac(b2-6)]GalNAc
In short: as §1

Gal(b1-4)Gal = molecular target: Gal(b1-4)Gal
In short: as §1

[12] = molecular target: Gal(b1-4)GalNAc(a1-3)[Fuc(a1-2)]Gal(b1-4)GlcNAc
In short: as §1

[13] = molecular target: Gal(b1-4)GalNAc(b1-3)[Fuc(a1-2)]Gal(b1-4)GlcNAc
In short: as §1

Gal(b1-4)Glc = molecular target: Gal(b1-4)Glc
In short: as §1

Gal(b1-4)Glc6S = molecular target: Gal(b1-4)Glc6S
In short: as §1

Gal(b1-4)GlcNAc = molecular target: Gal(b1-4)GlcNAc
In short: as §1

[14] = molecular target: Gal(b1-4)GlcNAc(a1-6)Gal(b1-4)GlcNAc
In short: as §1

Gal(b1-4)GlcNAc(b1-2)Man = molecular target: Gal(b1-4)GlcNAc(b1-2)Man
In short: as §1

[15] = molecular target: Gal(b1-4)GlcNAc(b1-2)Man(a1-3)Man(b1-4)GlcNAc(b1-4)GlcNAc
In short: as §1

[16] = molecular target: Gal(b1-4)GlcNAc(b1-2)Man(a1-3)[Gal(b1-4)GlcNAc(b1-2)Man(a1-6)]Man(b1-4)GlcNAc(b1-4)GlcNAc
In short: as §1

[17] = molecular target: Gal(b1-4)GlcNAc(b1-2)Man(a1-3)[Gal(b1-4)GlcNAc(b1-2)Man(a1-6)]Man(b1-4)GlcNAc(b1-4)[Fuc(a1-6)]GlcNAc
In short: as §1

[18] = molecular target: Gal(b1-4)GlcNAc(b1-2)Man(a1-3)[Gal(b1-4)GlcNAc(b1-2)Man(a1-6)][Gal(b1-4)GlcNAc(b1-4)]Man(b1-4)GlcNAc(b1-4)[Fuc(a1-6)]GlcNAc
In short: as §1

[19] = molecular target: Gal(b1-4)GlcNAc(b1-2)Man(a1-3)[Gal(b1-4)GlcNAc(b1-2)Man(a1-6)][GlcNAc(b1-4)]Man(b1-4)GlcNAc(b1-4)[Fuc(a1-6)]GlcNAc
In short: as §1

[20] = molecular target: Gal(b1-4)GlcNAc(b1-2)Man(a1-3)[GlcNAc(b1-2)Man(a1-6)]Man(b1-4)GlcNAc(b1-4)GlcNAc
In short: as §1

[21] = molecular target: Gal(b1-4)GlcNAc(b1-2)Man(a1-3)[GlcNAc(b1-4)][Gal(b1-4)GlcNAc(b1-2)Man(a1-6)]Man(b1-4)GlcNAc(b1-4)GlcNAc
In short: as §1

[22] = molecular target: Gal(b1-4)GlcNAc(b1-2)Man(a1-3)[Man(a1-6)]Man(b1-4)GlcNAc(b1-4)GlcNAc
In short: as §1

[23] = molecular target: Gal(b1-4)GlcNAc(b1-2)Man(a1-6)Man(b1-4)GlcNAc(b1-4)GlcNAc
In short: as §1

[24] = molecular target: Gal(b1-4)GlcNAc(b1-2)Man(a1-6)[GlcNAc(b1-2)Man(a1-3)]Man(b1-4)GlcNAc(b1-4)GlcNAc
In short: as §1

[25] = molecular target: Gal(b1-4)GlcNAc(b1-2)Man(a1-6)[Man(a1-3)]Man(b1-4)GlcNAc(b1-4)GlcNAc
In short: as §1

[26] = molecular target: Gal(b1-4)GlcNAc(b1-2)[Gal(b1-4)GlcNAc(b1-4)]Man(a1-3)[Gal(b1-4)GlcNAc(b1-2)Man(a1-6)]Man(b1-4)GlcNAc(b1-4)GlcNAc
In short: as §1

[27] = molecular target: Gal(b1-4)GlcNAc(b1-2)[Gal(b1-4)GlcNAc(b1-4)]Man(a1-3)[Gal(b1-4)GlcNAc(b1-2)[Gal(b1-4)GlcNAc(b1-6)]Man(a1-6)]Man(b1-4)GlcNAc(b1-4)GlcNAc
In short: as §1

[28] = molecular target: Gal(b1-4)GlcNAc(b1-2)[Gal(b1-4)GlcNAc(b1-4)]Man(a1-3)[GlcNAc(b1-4)][Gal(b1-4)GlcNAc(b1-2)Man(a1-6)]Man(b1-4)GlcNAc(b1-4)GlcNAc
In short: as §1

[29] = molecular target: Gal(b1-4)GlcNAc(b1-2)[Gal(b1-4)GlcNAc(b1-4)]Man(a1-3)[GlcNAc(b1-4)][Gal(b1-4)GlcNAc(b1-2)[Gal(b1-4)GlcNAc(b1-6)]Man(a1-6)]Man(b1-4)GlcNAc(b1-4)GlcNAc
In short: as §1

[30] = molecular target: Gal(b1-4)GlcNAc(b1-2)[Gal(b1-4)GlcNAc(b1-6)]Man(a1-6)[Gal(b1-4)GlcNAc(b1-2)Man(a1-3)]Man(b1-4)GlcNAc(b1-4)GlcNAc
In short: as §1

[31] = molecular target: Gal(b1-4)GlcNAc(b1-2)[Gal(b1-4)GlcNAc(b1-6)]Man(a1-6)[Gal(b1-4)GlcNAc(b1-2)Man(a1-3)]Man(b1-4)GlcNAc(b1-4)[Fuc(a1-6)]GlcNAc
In short: as §1

[32] = molecular target: Gal(b1-4)GlcNAc(b1-2)[Gal(b1-4)GlcNAc(b1-6)]Man(a1-6)[GlcNAc(b1-4)][Gal(b1-4)GlcNAc(b1-2)Man(a1-3)]Man(b1-4)GlcNAc(b1-4)GlcNAc
In short: as §1

[33] = molecular target: Gal(b1-4)GlcNAc(b1-2)[Gal(b1-4)GlcNAc(b1-6)]Man(a1-6)[GlcNAc(b1-4)][Gal(b1-4)GlcNAc(b1-2)[Gal(b1-4)GlcNAc(b1-4)]Man(a1-3)]Man(b1-4)GlcNAc(b1-4)[Fuc(a1-6)]GlcNAc
In short: as §1

[34] = molecular target: Gal(b1-4)GlcNAc(b1-3)Gal(b1-3)GalNAc
In short: as §1

[35] = molecular target: Gal(b1-4)GlcNAc(b1-3)Gal(b1-3)GlcNAc
In short: as §1

[36] = molecular target: Gal(b1-4)GlcNAc(b1-3)Gal(b1-4)Glc
In short: as §1

[37] = molecular target: Gal(b1-4)GlcNAc(b1-3)Gal(b1-4)GlcNAc
In short: as §1

[38] = molecular target: Gal(b1-4)GlcNAc(b1-3)Gal(b1-4)GlcNAc(b1-2)Man(a1-3)[Gal(b1-4)GlcNAc(b1-3)Gal(b1-4)GlcNAc(b1-2)Man(a1-6)]Man(b1-4)GlcNAc(b1-4)GlcNAc
In short: as §1

[39] = molecular target: Gal(b1-4)GlcNAc(b1-3)Gal(b1-4)GlcNAc(b1-2)Man(a1-3)[Gal(b1-4)GlcNAc(b1-3)Gal(b1-4)GlcNAc(b1-2)Man(a1-6)]Man(b1-4)GlcNAc(b1-4)[Fuc(a1-6)]GlcNAc
In short: as §1

B1: rCnSL-A (Clitocybe nebularis) (protein)
chain: VNPNLPGPNDVFVGFRGTNNIVGAIYEKDGIKDTPLNNGADAEMGPGSYITDGLFTARIFASGSAGNNPGTTATVCKIYASGVQWRGAPKGYIPVAYFGNGPTAEQRRQTYLRTLGLPGTAIRFGNLNTNPGQGPTAPRQMVVPPGPLRSLLKASCFPAADTRLPQTLHYFEKRVDWNIITAADSQTWGH
[1]
  glycan array binding signal (z-score): -0.196
Gal(b1-3)GlcNAc6S
  glycan array binding signal (z-score): -0.206
[2]
  glycan array binding signal (z-score): -0.209
[3]
  glycan array binding signal (z-score): 0.042
[4]
  glycan array binding signal (z-score): -0.187
[5]
  glycan array binding signal (z-score): -0.147
[6]
  glycan array binding signal (z-score): -0.167
[7]
  glycan array binding signal (z-score): -0.166
[8]
  glycan array binding signal (z-score): -0.23
[9]
  glycan array binding signal (z-score): -0.032
[10]
  glycan array binding signal (z-score): -0.194
[11]
  glycan array binding signal (z-score): -0.245
Gal(b1-4)Gal
  glycan array binding signal (z-score): -0.221
[12]
  glycan array binding signal (z-score): -0.275
[13]
  glycan array binding signal (z-score): -0.256
Gal(b1-4)Glc
  glycan array binding signal (z-score): -0.203
Gal(b1-4)Glc6S
  glycan array binding signal (z-score): -0.219
Gal(b1-4)GlcNAc
  glycan array binding signal (z-score): -0.215
[14]
  glycan array binding signal (z-score): 2.03
Gal(b1-4)GlcNAc(b1-2)Man
  glycan array binding signal (z-score): -0.181
[15]
  glycan array binding signal (z-score): -0.164
[16]
  glycan array binding signal (z-score): -0.203
[17]
  glycan array binding signal (z-score): 0.142
[18]
  glycan array binding signal (z-score): 0.115
[19]
  glycan array binding signal (z-score): 0.061
[20]
  glycan array binding signal (z-score): -0.241
[21]
  glycan array binding signal (z-score): 0.118
[22]
  glycan array binding signal (z-score): -0.103
[23]
  glycan array binding signal (z-score): -0.216
[24]
  glycan array binding signal (z-score): -0.213
[25]
  glycan array binding signal (z-score): -0.099
[26]
  glycan array binding signal (z-score): 2.67
[27]
  glycan array binding signal (z-score): 1.78
[28]
  glycan array binding signal (z-score): 0.142
[29]
  glycan array binding signal (z-score): 0.528
[30]
  glycan array binding signal (z-score): 0.425
[31]
  glycan array binding signal (z-score): 1.27
[32]
  glycan array binding signal (z-score): 0.925
[33]
  glycan array binding signal (z-score): 0.621
[34]
  glycan array binding signal (z-score): -0.149
[35]
  glycan array binding signal (z-score): -0.188
[36]
  glycan array binding signal (z-score): 0.188
[37]
  glycan array binding signal (z-score): -0.174
[38]
  glycan array binding signal (z-score): 1.2
[39]
  glycan array binding signal (z-score): 0.835
